Some of the results follow.
Key:
[1] = system: HSkMC (human skeletal muscle cells); assay: cytotoxicity call (relative viability < 0.9); details: 10 µM
[2] = system: HepG2; assay: cytotoxicity call (relative viability < 0.9); details: 10 µM
[3] = system: S. aureus RN4220; assay: growth inhibition call (relative growth <= 0.2); details: 50 µM

Structure (SMILES): Cc1nc(CN)c(C)o1
- cytotoxicity call [1]: inactive
- cytotoxicity call [2]: inactive
- growth inhibition call [3]: inactive

Structure (SMILES): C[C@@H]1CN([C@@H](C)CO)C(=O)c2cc(-c3ccc(C(=O)N(C)C)cc3)cnc2O[C@H]1CN(C)C(=O)c1ccncc1
- cytotoxicity call [1]: inactive
- cytotoxicity call [2]: inactive
- growth inhibition call [3]: inactive

Structure (SMILES): CC(C)(C)c1cc(CN)n[nH]1
- cytotoxicity call [1]: inactive
- cytotoxicity call [2]: inactive
- growth inhibition call [3]: inactive

Structure (SMILES): COc1ccc(NC(=O)N(C)C[C@@H]2OCCCC[C@H](C)Oc3ccc(NC(=O)Cc4ccccc4)cc3C(=O)N([C@H](C)CO)C[C@H]2C)cc1
- cytotoxicity call [1]: inactive
- cytotoxicity call [2]: inactive
- growth inhibition call [3]: inactive

Structure (SMILES): C[C@@H]1CC=CC[C@@H](c2cccc(Cl)c2)NC(=O)[C@@H](Cc2ccccc2)N(C)C(=O)c2ccccc2O1
- cytotoxicity call [1]: inactive
- cytotoxicity call [2]: inactive
- growth inhibition call [3]: inactive

Structure (SMILES): CCC(=O)N1C[C@]2(C1)CN([C@@H](CO)c1c2c2ccc(cc2n1C)OC)S(=O)(=O)C
- cytotoxicity call [1]: inactive
- cytotoxicity call [2]: inactive
- growth inhibition call [3]: inactive

Structure (SMILES): COc1ccc(CN(C)C[C@@H]2OCCCC[C@@H](C)Oc3ccc(NC(=O)Nc4ccc(C(F)(F)F)cc4)cc3C(=O)N([C@@H](C)CO)C[C@@H]2C)cc1
- cytotoxicity call [1]: active
- cytotoxicity call [2]: active
- growth inhibition call [3]: inactive

Structure (SMILES): C[C@H](CO)N1C[C@H](C)[C@@H](CN(C)Cc2ccc3c(c2)OCO3)Oc2cc(Br)ccc2S1(=O)=O
- cytotoxicity call [1]: inactive
- cytotoxicity call [2]: inactive
- growth inhibition call [3]: inactive

Structure (SMILES): Cc1noc(C)c1NC(=O)N(C)C[C@H]1Oc2ccc(NC(=O)Nc3cccc4ccccc34)cc2C(=O)N([C@@H](C)CO)C[C@@H]1C
- cytotoxicity call [1]: inactive
- cytotoxicity call [2]: inactive
- growth inhibition call [3]: inactive

Structure (SMILES): COc1cc(/C=C/C(=O)CC2=N/C(=N/CCc3ccccc3)S[C@H](c3ccc(O)c(OC)c3)C2)ccc1O
- cytotoxicity call [1]: inactive
- cytotoxicity call [2]: inactive
- growth inhibition call [3]: inactive

Structure (SMILES): Cc1noc(C)c1S(=O)(=O)Nc1ccc2c(c1)C(=O)N([C@@H](C)CO)C[C@@H](C)[C@H](CN(C)C)OCCCC[C@H](C)O2
- cytotoxicity call [1]: inactive
- cytotoxicity call [2]: inactive
- growth inhibition call [3]: inactive

Structure (SMILES): O=C(C[C@H]1CC[C@@H]2[C@H](COC[C@H](O)CN2C(=O)c2ccc(F)cc2)O1)NCCCN1CCOCC1
- cytotoxicity call [1]: inactive
- cytotoxicity call [2]: inactive
- growth inhibition call [3]: inactive

Structure (SMILES): Cc1noc(C)c1NC(=O)N[C@@H]1CC[C@H](CC(=O)N2CCN(C)CC2)O[C@@H]1CO
- cytotoxicity call [1]: inactive
- cytotoxicity call [2]: inactive
- growth inhibition call [3]: inactive

Structure (SMILES): C[N+](C)(C)CCCCCCNC(=O)[C@H]1C[C@H]2C(=O)N[C@@H](CCCC[N+](C)(C)C)C(=O)N2[C@H]1c1ccc(O)cc1
- cytotoxicity call [1]: inactive
- cytotoxicity call [2]: inactive
- growth inhibition call [3]: inactive

Structure (SMILES): Cc1noc(C)c1S(=O)(=O)Nc1cccc2c1O[C@@H](CN(C)S(=O)(=O)c1cccs1)[C@@H](C)CN([C@@H](C)CO)C2=O
- cytotoxicity call [1]: inactive
- cytotoxicity call [2]: inactive
- growth inhibition call [3]: inactive

Structure (SMILES): C[C@H](CO)N1C[C@H](C)[C@@H](CN(C)S(=O)(=O)c2cn(C)cn2)Oc2cc(C3=CCCCC3)ccc2S1(=O)=O
- cytotoxicity call [1]: inactive
- cytotoxicity call [2]: inactive
- growth inhibition call [3]: inactive

Structure (SMILES): Cc1noc(C)c1S(=O)(=O)Nc1ccc2c(c1)C(=O)N([C@@H](C)CO)C[C@@H](C)[C@H](CN(C)CC1CC1)O2
- cytotoxicity call [1]: inactive
- cytotoxicity call [2]: inactive
- growth inhibition call [3]: inactive

Structure (SMILES): C[C@H]1CCCCO[C@@H](CN(C)C(=O)C2CCCCC2)[C@@H](C)CN([C@@H](C)CO)C(=O)c2cc(NC(=O)Nc3ccc(C(F)(F)F)cc3)ccc2O1
- cytotoxicity call [1]: inactive
- cytotoxicity call [2]: active
- growth inhibition call [3]: inactive

Structure (SMILES): C[C@H]1CCCCO[C@H](CN(C)C(=O)C2CCCCC2)[C@@H](C)CN([C@@H](C)CO)C(=O)c2cc(NC(=O)Nc3ccc(F)cc3)ccc2O1
- cytotoxicity call [1]: inactive
- cytotoxicity call [2]: active
- growth inhibition call [3]: inactive

Structure (SMILES): CC(C)NC(=O)Nc1ccc2c(c1)C(=O)N([C@H](C)CO)C[C@H](C)[C@H](CN(C)Cc1ccc3c(c1)OCO3)O2
- cytotoxicity call [1]: inactive
- cytotoxicity call [2]: inactive
- growth inhibition call [3]: inactive

Structure (SMILES): CC(C)CC#Cc1ccc2c(c1)O[C@@H](CN(C)C(=O)c1ccncc1)[C@H](C)CN([C@@H](C)CO)S2(=O)=O
- cytotoxicity call [1]: inactive
- cytotoxicity call [2]: inactive
- growth inhibition call [3]: inactive

Structure (SMILES): C[C@@H]1CN([C@H](C)CO)C(=O)c2cc(C#Cc3ccccc3F)cnc2O[C@@H]1CN(C)C(=O)c1ccc2c(c1)OCO2
- cytotoxicity call [1]: inactive
- cytotoxicity call [2]: inactive
- growth inhibition call [3]: inactive

Structure (SMILES): C[C@H]1CN([C@@H](C)CO)C(=O)c2cccc(NC(=O)C3CC3)c2O[C@H]1CN(C)S(=O)(=O)c1ccc(Cl)cc1
- cytotoxicity call [1]: inactive
- cytotoxicity call [2]: inactive
- growth inhibition call [3]: inactive

Structure (SMILES): COc1ccc(NC(=O)Nc2ccc3c(c2)C(=O)N([C@H](C)CO)C[C@@H](C)[C@H](CN(C)Cc2ccc(C(=O)O)cc2)OCCCC[C@@H](C)O3)cc1
- cytotoxicity call [1]: inactive
- cytotoxicity call [2]: inactive
- growth inhibition call [3]: inactive

Structure (SMILES): COc1ccc(S(=O)(=O)N(C)C[C@@H]2Oc3c(NC(=O)Nc4cccc5ccccc45)cccc3C(=O)N([C@@H](C)CO)C[C@H]2C)cc1Cl
- cytotoxicity call [1]: inactive
- cytotoxicity call [2]: inactive
- growth inhibition call [3]: inactive

— the antibiotic and cytotoxicity screens of Wong et al. (2023)
